{"source": "PubChem BioAssay AID1508623", "about": "(National Center for Advancing Translational Sciences (NCATS), 2021)", "note": "In all, about 48,000 compounds went through this assay and about 450 (0.94%) were called active. About 19% were inconclusive and are not listed. Calls come from the whole dose curve; as a rule, active = well fitted inhibition curve with a large enough effect; inconclusive = small, poorly fitted or top-dose-only effect; inactive = no such curve, though single readings can be large or run the other way. Some of the results follow."}
{"assay": "Primary qHTS for Identification of Small Molecule Inhibitors of Huntingtin Promoter Activity; note: nearly all actives have a fitted effect of over 50% in size", "conditions": "HEK293 HTT promoter firefly luciferase reporter (activity 0% = vehicle and -100% = no light), 24 h; series mostly up to 57.5 µM; activity change, negative = inhibition: at the top concentration", "how_it_was_run": "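HEK293 luciferase promoter-reporter cells (2,500/well) plated 24 h, then compounds added at up to 57.5 uM final for 24 h at 37 °C. Firefly luminescence by Dual-Glo, normalized to vehicle (0%) and zero RLU (-100%).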"}
{"compound": "CCN(CC)S(=O)(=O)c1ccc2c(c1)N(CC(=O)Nc1ccc(F)cc1F)C(=O)C1CCCN21", "note": "(stereo unspecified)", "activity change, negative = inhibition": "inactive: -17.2%"}
{"compound": "CCOC(=O)c1[nH]c2ccccc2c1NC(=O)c1cc(Cl)ccc1Cl", "activity change, negative = inhibition": "inactive: -23.5%"}
{"compound": "COc1ccc(CNC(=O)CCCCCn2c(=O)[nH]c3ccccc3c2=O)cc1", "activity change, negative = inhibition": "inactive: -11.3%"}
{"compound": "CCOC(=O)c1[nH]c2ccccc2c1NC(=O)c1ccc(OC)c(OC)c1", "activity change, negative = inhibition": "inactive: -13.7%"}
{"compound": "COc1cc(NC(=O)Cn2c(C)cc(C)c(C#N)c2=O)cc(OC)c1", "activity change, negative = inhibition": "inactive: -5.25%"}
{"compound": "CCn1cc(C(=O)NCCc2ccc(Cl)cc2)c(=O)c2cc(S(=O)(=O)N3CCOCC3)ccc21", "activity change, negative = inhibition": "inactive: -13.2%"}
{"compound": "Oc1cccc(-c2nc3ncccn3c2Nc2cccc(C(F)(F)F)c2)c1", "activity change, negative = inhibition": "inactive: -26.4%"}
{"compound": "NCCO", "activity change, negative = inhibition": "inactive: 7.87% [at 116 µM]"}
{"compound": "COc1ccccc1Cc1nc2ccccc2nc1SCC(=O)NCc1ccc(F)cc1", "activity change, negative = inhibition": "inactive: 3.9%"}
{"compound": "COc1ccccc1Nc1nc2c(S(=O)(=O)c3ccc(C(C)C)cc3)nnn2c2ccsc12", "activity change, negative = inhibition": "inactive: -3.11%"}
{"compound": "Cc1ccc2c(=O)cc(C(=O)Nc3ccc(S(=O)(=O)N4CCCCC4)cc3)oc2c1C", "activity change, negative = inhibition": "inactive: -22.6%"}
{"compound": "Cc1ccc(NC(=O)CCc2nc3cccnc3n2-c2ccccc2)cc1", "activity change, negative = inhibition": "inactive: -31.4%"}
{"compound": "Cc1coc2cc3oc(=O)c(CC(=O)NCCc4ccccc4F)c(C)c3cc12", "activity change, negative = inhibition": "inactive: 2.28%"}
{"compound": "O=C(Cn1c(=O)n(Cc2ccc(C(=O)NCc3ccccc3Cl)cc2)c(=O)c2ccccc21)Nc1ccc(F)cc1", "activity change, negative = inhibition": "inactive: -7.55%"}
{"compound": "CC(C)(C)C(=O)Nc1ccc(Cl)c(-c2nc3ccccc3[nH]2)c1", "activity change, negative = inhibition": "inactive: -9.85%"}
{"compound": "Cc1c(-c2ccccc2)n(-c2ccc(Cl)cc2)c2nc3c(c(=O)n(C)c(=O)n3C)n12", "activity change, negative = inhibition": "inactive: -6.35%"}
{"compound": "CCCCC(=O)N1c2ccccc2C(C)(c2ccccc2)CC1(C)C", "note": "(stereo unspecified)", "activity change, negative = inhibition": "inactive: -9.24%"}
{"compound": "Cc1cccc(CNC(=O)c2cnc3c(-c4cccc(C)c4)c(C)nn3c2C)c1", "activity change, negative = inhibition": "inactive: -20.1%"}
{"compound": "COc1ccc(OC)c(CCNc2ncnc3onc(-c4ccc(Cl)cc4)c23)c1", "activity change, negative = inhibition": "inactive: -26.4%"}
{"compound": "CCc1ccc(S(=O)(=O)NCCc2cn3ccsc3n2)cc1", "activity change, negative = inhibition": "inactive: -11.5%"}
{"compound": "Cn1c(=O)c2cc(S(=O)(=O)NC(Cc3ccccc3)C(=O)Nc3ccc(F)cc3)ccc2n(C)c1=O", "note": "(stereo unspecified)", "activity change, negative = inhibition": "inactive: -13.2%"}
{"compound": "CCOc1cc2ncc(C#N)c(Nc3ccc(F)c(Cl)c3)c2cc1NC(=O)C=CCN(C)C", "activity change, negative = inhibition": "inactive: -5.92%"}
{"compound": "O=C(c1ccccc1Cl)n1nc(-c2ccco2)nc1NCc1cccs1", "activity change, negative = inhibition": "inactive: 7.47%"}
{"compound": "Cc1ccccc1Cn1c2ccccc2c2cnn(CC(=O)NCc3cccc(Cl)c3)c(=O)c21", "activity change, negative = inhibition": "inactive: -24.4%"}
{"compound": "CCOC(=O)c1ccc(CN(Cc2ccc(F)cc2)S(=O)(=O)c2ccc(F)c(C(=O)Nc3cc(Cl)ccc3OC)c2)cc1", "activity change, negative = inhibition": "inactive: -12.1%"}
{"compound": "Cc1ccc(N2CCN(C(=O)c3c(C)oc4ncn(C)c(=O)c34)CC2)c(C)c1", "activity change, negative = inhibition": "inactive: 11.8%"}
{"compound": "Cc1ccc(NC(=O)CSc2nc3c(oc4ccccc43)c(=O)n2Cc2ccco2)cc1F", "activity change, negative = inhibition": "inactive: -10.7%"}
{"compound": "Cc1nc(-n2nc(C)c(Cc3ccc(Cl)cc3)c2C)sc1C(=O)N1CCC(C)CC1", "activity change, negative = inhibition": "inactive: -3.53%"}
{"compound": "CC(C)c1ccc(OCC(=O)Nc2ccc(S(=O)(=O)Nc3ncccn3)cc2)cc1", "activity change, negative = inhibition": "inactive: -7.67%"}
{"compound": "Cn1cc(-c2cc3n(n2)CCC(=O)N3CCCC(=O)Nc2ccc(Cl)cc2)c2ccccc21", "activity change, negative = inhibition": "inactive: -18.5%"}
{"compound": "CC(C)OC(=O)c1c(NC(=O)c2cccc(C(F)(F)F)c2)sc2c1CCCC2", "activity change, negative = inhibition": "inactive: 0.786%"}
{"compound": "O=C1CC(c2ccccc2)Sc2ccccc2N1Cc1ccccc1F", "note": "(stereo unspecified)", "activity change, negative = inhibition": "inactive: -26.8%"}
{"compound": "COc1ccc(NC(=O)Cn2ccn(-c3ccc(F)c(F)c3)c(=O)c2=O)cc1Cl", "activity change, negative = inhibition": "inactive: 2%"}
{"compound": "CN(C)CCCSc1ccccc1NC(=O)/C=C/c1ccccc1", "activity change, negative = inhibition": "inactive: 0.964%"}
{"compound": "COc1cccc(CNC(=O)c2sc3nc[nH]c(=O)c3c2C)c1", "activity change, negative = inhibition": "inactive: -2.31%"}
{"compound": "COc1ccc(CNC(=O)CCC2N=C3c4ccccc4N=C(SCC(=O)NCCc4ccc(OC)c(OC)c4)N3C2=O)cc1", "note": "(stereo unspecified)", "activity change, negative = inhibition": "inactive: -13.7%"}
{"compound": "CN[C@H]1[C@@H](O[C@@H]2[C@H](O[C@@H]3[C@@H](O)[C@@H](O)[C@@H](N=C(N)N)[C@@H](O)[C@@H]3N=C(N)N)O[C@H](C)[C@@]2(O)C=O)O[C@@H](CO)[C@@H](O)[C@H]1O", "activity change, negative = inhibition": "inactive: 7.17% [at 19.1 µM]"}
{"compound": "COc1ccc(C)c2sc(NC(=O)c3ccc(S(=O)(=O)N4CCOCC4)cc3)nc12", "activity change, negative = inhibition": "inactive: -1.37%"}
{"compound": "COc1cccc(N2CCN(C(=O)c3cnc4c(-c5ccc(F)cc5)c(C)nn4c3C)CC2)c1", "activity change, negative = inhibition": "inactive: -18.2%"}
{"compound": "COc1ccc(C2Nc3ccccc3-c3cc(C)nn32)c(OC)c1", "note": "(stereo unspecified)", "activity change, negative = inhibition": "inactive: -2.13%"}
{"compound": "COC(=O)c1ccccc1NS(=O)(=O)c1cc2c3c(c1)CC(=O)N3CCC2", "activity change, negative = inhibition": "inactive: -21.5%"}
{"compound": "CCN(CC)S(=O)(=O)c1ccc2c(c1)N(CC(=O)Nc1ccc(Cl)cc1)C(=O)C1CCCN21", "note": "(stereo unspecified)", "activity change, negative = inhibition": "inactive: -16%"}
{"compound": "CC1=C(C(=O)Nc2cc3cn[nH]c3cc2F)C(c2ccc(Cl)cc2F)N=C(c2ccnc(Cl)c2)N1", "note": "(stereo unspecified)", "activity change, negative = inhibition": "inactive: -24.7%"}
{"compound": "CCOc1ccc2nc(N(Cc3cccnc3)C(=O)c3cccs3)sc2c1", "activity change, negative = inhibition": "inactive: 27.6%"}
{"compound": "COc1cccc(-c2nc(Cn3c(=O)cc(C)c4c(C)nn(-c5ccccc5)c43)c(C)o2)c1OC", "activity change, negative = inhibition": "inactive: -30%"}
{"compound": "CCCCCOc1ccc(NC(=O)Cn2c(-c3nonc3N)nc3ccccc32)cc1", "activity change, negative = inhibition": "inactive: -15%"}
